The supplement of paper PMC12067230
Single values of this set are uncertain.

Experiment: amyloid nucleation score relative to library mode (yeast Sup35 reporter selection) (log enrichment difference); higher = more amyloid nucleation; sequences are the first 22 residues of the Bri2 peptide extended by up to 12 random residues
Conditions: random library (experiment): 1;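 active = nucleation score significantly above 0 at FDR 0.05; inactive = not significantly above 0 or absent from output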
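Also: [psi-pin-] Saccharomyces cerevisiae expressing SupN fusions, induced by 100 µM Cu2SO4, selected 7 d at 30 °C without adenine and uracil, scored by deep sequencing of output versus input.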

Sequence	amyloid nucleation score
EASNCFAIRHFENKFAVETLICASVSCAWGECAR	6.17
EASNCFAIRHFENKFAVETLICWTVMSSNGWVCW	inactive
EASNCFAIRHFENKFAVETLICMA	inactive
EASNCFAIRHFENKFAVETLICKWRHEA	0.288
EASNCFAIRHFENKFAVETLICRSWMVSYAWSL	inactive
EASNCFAIRHFENKFAVETLICYRSEGGVDKFAS	3.35
EASNCFAIRHFENKFAVETLICKYEYFYEEPVLL	inactive
EASNCFAIRHFENKFAVETLICKLTWQHEPVLG	inactive
EASNCFAIRHFENKFAVETLICAEAMRQVGEWQG	inactive
EASNCFAIRHFENKFAVETLICICDGYVFSVVAE	inactive
EASNCFAIRHFENKFAVETLICIAFSLSVYGMYL	inactive
EASNCFAIRHFENKFAVETLICVCGVRVSVSELR	inactive
EASNCFAIRHFENKFAVETLICCCTLPAFPRVNW	4.36
EASNCFAIRHFENKFAVETLICKSRPCGTQLAVE	3.42
EASNCFAIRHFENKFAVETLICRGRYRLGPGHPL	3.83
EASNCFAIRHFENKFAVETLICDIPMWSGADALL	inactive
EASNCFAIRHFENKFAVETLICLNQMAHRVEAIV	inactive
EASNCFAIRHFENKFAVETLICVFMDYNHEGAMV	6.29
EASNCFAIRHFENKFAVETLICKTPGGRQLVCVM	inactive
EASNCFAIRHFENKFAVETLICQPLRDVGELLAV	inactive
EASNCFAIRHFENKFAVETLICYYVESQIGKLLQ	inactive
EASNCFAIRHFENKFAVETLICVCELGGPDFPLR	inactive
EASNCFAIRHFENKFAVETLICLWRCNGIFANRV	inactive
EASNCFAIRHFENKFAVETLICFVNSDSRRYLA	inactive
EASNCFAIRHFENKFAVETLICFVLLRLMNRAPN	inactive
EASNCFAIRHFENKFAVETLICELAVSKVMLRWV	inactive

Sequence	amyloid nucleation score
EASNCFAIRHFENKFAVETLICVSVTQSSLCGRG	inactive
EASNCFAIRHFENKFAVETLICYEACP	inactive
EASNCFAIRHFENKFAVETLICGTKRSCDLSALK	inactive
EASNCFAIRHFENKFAVETLICCID	6
EASNCFAIRHFENKFAVETLICFVDA	1.52
EASNCFAIRHFENKFAVETLICVQQR	inactive
EASNCFAIRHFENKFAVETLICLNVFYNFVRFVT	inactive
EASNCFAIRHFENKFAVETLICCPVLFKWTVALT	6.03
EASNCFAIRHFENKFAVETLICIQVIPMRIRCNS	inactive
EASNCFAIRHFENKFAVETLICTQRDKSGRRLEG	-0.0572
EASNCFAIRHFENKFAVETLICQFENRVFMDRPS	2.11
EASNCFAIRHFENKFAVETLICGRARHRHCCCRE	1.61
EASNCFAIRHFENKFAVETLICCHRRKPGGYKYC	4
EASNCFAIRHFENKFAVETLICMCMDFIEVSRMF	inactive
EASNCFAIRHFENKFAVETLICCVTCLMSVAHLG	3.67
EASNCFAIRHFENKFAVETLICMSEFRKPTMRSV	inactive
EASNCFAIRHFENKFAVETLICVPIRLGRERVSG	inactive
EASNCFAIRHFENKFAVETLICECGWVTKRCRCG	inactive
EASNCFAIRHFENKFAVETLICLMVIG	inactive
EASNCFAIRHFENKFAVETLICYAFAVPPVSMSL	4.58
EASNCFAIRHFENKFAVETLICLMLG	2.14
EASNCFAIRHFENKFAVETLICANCHWSTWECRG	3.15
EASNCFAIRHFENKFAVETLICCREVDCSLSF	2.08
EASNCFAIRHFENKFAVETLICFSQH	4.9
EASNCFAIRHFENKFAVETLICYCGTNASFTGFG	8.72
EASNCFAIRHFENKFAVETLICLSVCGRGAWARE	7.19

Same assay, conditions: random library (experiment): 2

Sequence	amyloid nucleation score
EASNCFAIRHFENKFAVETLICTRKELGDCCFTG	1.44
EASNCFAIRHFENKFAVETLICLDKYCSGWTEFR	2.02
EASNCFAIRHFENKFAVETLICVLPIRWA	inactive
EASNCFAIRHFENKFAVETLICNLIRMTRMSIGS	2.4
EASNCFAIRHFENKFAVETLICWIYDLSFVNHFR	1.17
EASNCFAIRHFENKFAVETLICIWECRWGKVLWV	3.11
EASNCFAIRHFENKFAVETLICFIWRGMCSVRLG	inactive
EASNCFAIRHFENKFAVETLICVGMWVFVRCFMR	inactive
EASNCFAIRHFENKFAVETLICIIVFVNFSFVTC	inactive
EASNCFAIRHFENKFAVETLICVRMVHTYGLMSE	2.32
EASNCFAIRHFENKFAVETLICAKFSLSVQFRCE	3.34
EASNCFAIRHFENKFAVETLICFQSTWYALHYAY	inactive
EASNCFAIRHFENKFAVETLICISQWDVCLRCMK	inactive
EASNCFAIRHFENKFAVETLICVCMVSIRWGFLL	inactive
EASNCFAIRHFENKFAVETLICWRGEFVKLDDAF	2.26
EASNCFAIRHFENKFAVETLICCNAMSPQAYEGW	8.72
EASNCFAIRHFENKFAVETLICYNVRQ	4.38
EASNCFAIRHFENKFAVETLICRFSFCYSFFGLW	inactive
EASNCFAIRHFENKFAVETLICYMLACTNDSI	7.48
EASNCFAIRHFENKFAVETLICDYCLASFKNPGA	1.37
EASNCFAIRHFENKFAVETLICVTRC	inactive

Sequence	amyloid nucleation score
EASNCFAIRHFENKFAVETLICRQGDVFLRLLVW	inactive
EASNCFAIRHFENKFAVETLICVMVSVA	5.66
EASNCFAIRHFENKFAVETLICKTGKFSGHRIKC	inactive
EASNCFAIRHFENKFAVETLICGCWFVSVFPCAI	inactive
EASNCFAIRHFENKFAVETLICCRFIFTLVMEHC	inactive
EASNCFAIRHFENKFAVETLICLCMIISRETISA	0.844
EASNCFAIRHFENKFAVETLICLSYI	5.31
EASNCFAIRHFENKFAVETLICFGA	5.2
EASNCFAIRHFENKFAVETLICVSFSSISVNLLK	0.627
EASNCFAIRHFENKFAVETLICLDN	inactive
EASNCFAIRHFENKFAVETLICLLMFNNKGYVCV	inactive
EASNCFAIRHFENKFAVETLICILCIGMSIGTSL	inactive
EASNCFAIRHFENKFAVETLICPVRLRRVRTKRS	-0.0862
EASNCFAIRHFENKFAVETLICCNSCCQYKPIRW	6.52
EASNCFAIRHFENKFAVETLICCENGSYWLWGSA	5.77
EASNCFAIRHFENKFAVETLICML	7.5
EASNCFAIRHFENKFAVETLICDVLSGIS	inactive
EASNCFAIRHFENKFAVETLICNCGFFWRTDVSV	7.3
EASNCFAIRHFENKFAVETLICVSAGKLNDNFGH	inactive
EASNCFAIRHFENKFAVETLICARSCVKAGKLWG	inactive
EASNCFAIRHFENKFAVETLICYIVWPRLPDGST	5.94

Same assay, conditions: random library (experiment): 3

Sequence	amyloid nucleation score
EASNCFAIRHFENKFAVETLICWSPHLPSSINRN	4.28
EASNCFAIRHFENKFAVETLICRERGTVGQKEQP	1.32
EASNCFAIRHFENKFAVETLICCYLKRCLYMLRL	inactive
EASNCFAIRHFENKFAVETLICASRTLVWRVLGG	inactive
EASNCFAIRHFENKFAVETLICASKYRKVREY	inactive
EASNCFAIRHFENKFAVETLICRWSGDFGVLVLV	inactive
EASNCFAIRHFENKFAVETLICWGKSSYTWSMSG	inactive
EASNCFAIRHFENKFAVETLICTHTMSSRHTI	3.83
EASNCFAIRHFENKFAVETLICAVLLGQTRFCGT	1.15
EASNCFAIRHFENKFAVETLICMVG	inactive
EASNCFAIRHFENKFAVETLICLDGWPTMFDVAS	inactive
EASNCFAIRHFENKFAVETLICEFFAE	-0.784
EASNCFAIRHFENKFAVETLICVTNLQKLGAGDG	3.67
EASNCFAIRHFENKFAVETLICWLRITNDYWELL	inactive
EASNCFAIRHFENKFAVETLICWRRSVWWGQDEL	inactive
EASNCFAIRHFENKFAVETLICCGRLGSPLTMES	5.65
EASNCFAIRHFENKFAVETLICMSNVYRVISVMW	inactive
EASNCFAIRHFENKFAVETLICVAFGMTQCAKYS	2.75
EASNCFAIRHFENKFAVETLICVWTCE	inactive
EASNCFAIRHFENKFAVETLICLHL	7.24
EASNCFAIRHFENKFAVETLICREGGLYDAAAVA	inactive
EASNCFAIRHFENKFAVETLICRGLSRC	inactive
EASNCFAIRHFENKFAVETLICRTDRGKYSDLRD	inactive
EASNCFAIRHFENKFAVETLICASQFRN	inactive
EASNCFAIRHFENKFAVETLICFTAFFETYWMWR	inactive
EASNCFAIRHFENKFAVETLICGWGFCGYRVMEA	4.26
